# Results published in the antibiotic and cytotoxicity screens of Wong et al. (2023).
# Some of the results follow.
# Test system: HSkMC (human skeletal muscle cells)
# Assay: cytotoxicity call (relative viability < 0.9)
# Details: 10 µM
row,Structure (SMILES),cytotoxicity call
1,COc1ccc(NC(=O)N(C)C[C@@H]2Oc3ccc(NS(=O)(=O)c4cn(C)cn4)cc3CC(=O)N([C@H](C)CO)C[C@@H]2C)cc1,inactive
2,COc1cccc(-c2ccc3c(c2)O[C@@H](CN(C)C(=O)C2CCC2)[C@H](C)CN([C@@H](C)CO)S3(=O)=O)c1,inactive
3,C[C@@H](NC(=O)C[C@H]1CC[C@H](NC(=O)CN2CCOCC2)[C@@H](CO)O1)c1ccccc1,inactive
4,C[C@@](Cc1ccc(O)c(O)c1)(NN)C(=O)O,inactive
5,Cc1noc(C)c1NC(=O)Nc1ccc2c(c1)C(=O)N([C@H](C)CO)C[C@@H](C)[C@@H](CN(C)S(=O)(=O)c1ccccc1)O2,inactive
6,CCOC(=O)c1ccc(CNS(=O)(=O)c2ccc(S(=O)(=O)N3CCOCC3)cc2)o1,inactive
7,NC1=N[C@H]2CS(=O)(=O)C[C@@H]2S1,inactive
8,C[C@@H]1CN([C@@H](C)CO)C(=O)Cc2cc(NC(=O)Nc3ccc(F)cc3)ccc2O[C@@H]1CN(C)Cc1ccc(C(=O)Nc2ccccc2N)cc1,inactive
9,Cc1noc(C)c1NC(=O)Nc1ccc2c(c1)CC(=O)N([C@H](C)CO)C[C@@H](C)[C@@H](CN(C)Cc1ccc(Cl)c(Cl)c1)O2,inactive
10,C[C@@H]1CCCCO[C@@H](CN(C)C(=O)Nc2ccc3c(c2)OCO3)[C@H](C)CN([C@H](C)CO)C(=O)c2cc(NC(=O)Nc3ccc(C(F)(F)F)cc3)ccc2O1,inactive
11,NCC1OC(OC2C(N)CC(N)C(OC3OC(CO)C(O)C(N)C3O)C2O)C(N)CC1O (stereo not given),inactive
12,COCC(=O)N1C[C@@H](C)[C@@H](OC)CN(C)C(=O)c2cc(NC(=O)c3ccc(OC)cc3)ccc2OC[C@H]1C,inactive
13,C[C@@H]1CCCCO[C@@H](CN(C)C(=O)Nc2ccc(F)cc2)[C@H](C)CN([C@H](C)CO)C(=O)c2cc(NS(=O)(=O)c3ccc(Cl)cc3)ccc2O1,inactive
14,Nc1ccccc1O,inactive
15,Cc1noc(C)c1S(=O)(=O)N(C)C[C@@H]1Oc2ccc(NC(=O)CCN3CCOCC3)cc2CC(=O)N([C@@H](C)CO)C[C@H]1C,inactive
16,Cc1noc(C)c1NC(=O)Nc1ccc2c(c1)C(=O)N([C@@H](C)CO)C[C@@H](C)[C@@H](CN(C)S(=O)(=O)c1cn(C)cn1)O2,inactive
17,C[C@H]1CN([C@@H](C)CO)C(=O)c2cc(NC(=O)c3ccncc3)ccc2O[C@@H]1CN(C)S(=O)(=O)c1ccccc1,inactive
18,C[C@H]1CN([C@@H](C)CO)C(=O)c2c(c3ccccc3n2C)-c2ccccc2CO[C@@H]1CN(C)C(=O)Nc1cccc(Cl)c1Cl,active
19,Cc1cc(C(=O)Nc2cccc3c2O[C@@H](CN(C)C(=O)Nc2c(C)noc2C)[C@@H](C)CN([C@@H](C)CO)C3=O)n(C)n1,inactive
20,COc1ccc(S(=O)(=O)N(C)C[C@H]2Oc3ncc(-c4ccncc4)cc3C(=O)N([C@H](C)CO)C[C@H]2C)cc1,inactive

row,Structure (SMILES),cytotoxicity call
1,c1cn(CCN2CCNCC2)cn1,inactive
2,CC(C)=CCCC(C)C1CCC2(C)C3=C(CCC12C)C1(C)CCC(O)C(C)(C)C1CC3 (stereo not given),inactive
3,CCN(CC)c1ccc(N2CC=C[C@@]34O[C@@H]5C=CCCOC(=O)[C@@H]5[C@H]3C(=O)N(CCCO)[C@@H]4C2=O)cc1,inactive
4,C[C@H](CO)N1C[C@H](C)[C@H](CN(C)S(=O)(=O)c2cn(C)cn2)Oc2c(NC(=O)C3CCOCC3)cccc2C1=O,inactive
5,Cc1ccc([N+](=O)[O-])cc1S(N)(=O)=O,inactive
6,COc1ccc(CN(C)C[C@H]2OCCCC[C@@H](C)Oc3ccc(NC(=O)Nc4c(C)noc4C)cc3C(=O)N([C@@H](C)CO)C[C@H]2C)cc1,inactive
7,COc1ccc(NC(=O)Nc2ccc3c(c2)C(=O)N([C@H](C)CO)C[C@H](C)[C@@H](CN(C)C(=O)NC2CCCCC2)OCCCC[C@H](C)O3)cc1,inactive
8,COc1ccc(S(=O)(=O)Nc2ccc3c(c2)CC(=O)N([C@@H](C)CO)C[C@@H](C)[C@@H](CN(C)Cc2ccc(-c4ccccc4)cc2)O3)cc1,inactive
9,CN(C)CCCNC(=O)C[C@H]1CC[C@@H]2[C@H](COc3ccc(NC(=O)c4cccc(F)c4)cc3C(=O)N2C)O1,inactive
10,COc1ccc([C@@H]([C@H](Cc2ccccc2)OC(C)=O)N2C[C@@H](CC(=O)N(C)C)[C@@H]3C(=NO[C@H]3c3ccccc3)[C@@H]2Cc2ccccc2)cc1,inactive
11,CCCCCCNC(=O)n1cc(F)c(=O)[nH]c1=O,inactive
12,COc1cccc(S(=O)(=O)N(C)C[C@@H]2Oc3cc(C#CCN(C)C)ccc3S(=O)(=O)N([C@@H](C)CO)C[C@H]2C)c1,inactive
13,C[C@@H]1CCCCO[C@@H](CN(C)C(=O)Nc2ccc(C(F)(F)F)cc2)[C@H](C)CN([C@H](C)CO)C(=O)c2cc(NC(=O)Cc3ccccc3)ccc2O1,inactive
14,C[C@H](CO)N1C[C@H](C)[C@@H](CN(C)C(=O)Nc2ccc3c(c2)OCO3)Oc2ccc(NC(=O)Nc3cccc4ccccc34)cc2C1=O,inactive
15,CC(C)(C)[S@](=O)N1Cc2cc(C(=O)NC3CCC3)nc(-c3cccc(-c4ccccc4F)c3)c2[C@@H]1CCO,inactive
16,COc1ccc(NC(=O)N(C)C[C@@H]2OCCCC[C@@H](C)Oc3ccc(NC(=O)Nc4ccc5c(c4)OCO5)cc3C(=O)N([C@@H](C)CO)C[C@H]2C)cc1,inactive
17,CC(C)NC(=O)N(C)C[C@@H]1Oc2ccc(NC(=O)Cc3ccccc3)cc2C(=O)N([C@H](C)CO)C[C@@H]1C,inactive
18,CC(CCc1ccccc1)NCC(O)c1ccc(O)c(C(N)=O)c1.Cl (stereo not given),inactive
19,CN1C(=O)c2cc(NC(=O)C3CCCC3)ccc2OC[C@H]2O[C@@H](CC(=O)NCCc3ccncc3)CC[C@H]21,inactive
20,CN(C)C(=O)c1cc2c(c(-c3cccc(/C=C/c4ccccc4)c3)n1)[C@H](CCO)N([S@@](=O)C(C)(C)C)C2,inactive
